From paper PMC4336329 (PLoS ONE, 2015)
Screen size: about 310,000 compounds; about 2,200 (0.71%) showed an effect of 50% or more. Effects have a minus sign here. The list shows a part of the results.

These molecules were tested against human ether-à-go-go-related gene (hERG) potassium channel (human, UniProt Q12809) (assay: primary screen, population patch clamp on CHO cells stably expressing hERG).
Chain of human ether-à-go-go-related gene (hERG) potassium channel (Q12809 whole entry, looked up): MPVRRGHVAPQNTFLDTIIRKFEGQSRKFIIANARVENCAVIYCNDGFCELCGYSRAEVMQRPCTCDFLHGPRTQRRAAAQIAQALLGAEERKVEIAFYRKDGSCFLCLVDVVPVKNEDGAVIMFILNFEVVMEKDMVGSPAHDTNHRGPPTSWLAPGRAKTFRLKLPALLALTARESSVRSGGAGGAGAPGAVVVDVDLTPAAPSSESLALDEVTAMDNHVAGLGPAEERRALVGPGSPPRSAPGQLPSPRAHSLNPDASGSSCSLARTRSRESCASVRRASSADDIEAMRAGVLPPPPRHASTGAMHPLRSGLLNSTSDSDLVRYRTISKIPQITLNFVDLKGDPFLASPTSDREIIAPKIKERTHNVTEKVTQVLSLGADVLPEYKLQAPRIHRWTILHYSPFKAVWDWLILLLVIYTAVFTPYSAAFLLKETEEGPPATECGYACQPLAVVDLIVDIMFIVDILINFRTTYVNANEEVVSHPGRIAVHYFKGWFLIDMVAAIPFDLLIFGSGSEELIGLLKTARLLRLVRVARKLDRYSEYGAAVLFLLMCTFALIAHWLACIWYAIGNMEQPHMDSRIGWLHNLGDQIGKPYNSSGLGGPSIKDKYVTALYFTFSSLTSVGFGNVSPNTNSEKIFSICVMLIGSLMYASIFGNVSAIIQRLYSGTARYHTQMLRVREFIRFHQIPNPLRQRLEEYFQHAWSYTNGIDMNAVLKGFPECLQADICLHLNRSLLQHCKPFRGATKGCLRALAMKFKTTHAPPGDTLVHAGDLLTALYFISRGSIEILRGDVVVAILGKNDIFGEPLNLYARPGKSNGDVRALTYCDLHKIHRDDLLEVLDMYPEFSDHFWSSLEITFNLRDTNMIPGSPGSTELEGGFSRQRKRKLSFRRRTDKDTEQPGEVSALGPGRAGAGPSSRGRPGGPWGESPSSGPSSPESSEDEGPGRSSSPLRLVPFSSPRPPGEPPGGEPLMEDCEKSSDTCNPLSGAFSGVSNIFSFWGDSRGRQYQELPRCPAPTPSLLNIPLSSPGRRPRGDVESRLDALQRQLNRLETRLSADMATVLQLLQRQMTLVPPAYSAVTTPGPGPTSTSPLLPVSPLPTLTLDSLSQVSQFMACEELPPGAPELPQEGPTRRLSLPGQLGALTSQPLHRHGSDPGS
With `O=C(CCN1CCCCC1)Nc1ccc(Cl)cc1C(=O)c1ccccc1` the “hERG current change (%, negative = inhibition) at 1uM” value was -42.9%.
For `COc1ccc(-c2nc(CS(=O)CC(=O)NCc3cccnc3)c(C)o2)cc1` (centres unmarked), the “hERG current change (%, negative = inhibition) at 1uM” value was 11.6%.
With `COCCCn1c(SCC(=O)Nc2ccc3c(c2)OCCO3)nnc1-c1ccoc1C` the “hERG current change (%, negative = inhibition) at 1uM” value was 1.88%.
For `COc1cc(/C=C2\SC(=S)N(NC(=O)c3ccc(O)c(OC)c3)C2=O)ccc1O`, the “hERG current change (%, negative = inhibition) at 1uM” value was 13.4%.
With `Fc1cccc(Cl)c1CSc1ccc(-c2cccnc2)nn1` the “hERG current change (%, negative = inhibition) at 1uM” value was 0.367%.
For `C=CCc1ccccc1OCCn1nnc2ccccc21`, the “hERG current change (%, negative = inhibition) at 1uM” value was 19.6%.
In the case of `CCn1c(=O)c(=O)[nH]c2c(=O)oc3ccc(S(=O)(=O)Nc4ccc(OC)cc4)cc3c21`, the “hERG current change (%, negative = inhibition) at 1uM” value is reported as 13.8%.
For `Cc1cc(C(=O)NNC(=O)c2ccc(Cl)cc2)no1`, the “hERG current change (%, negative = inhibition) at 1uM” value was 8.02%.
`O=c1nc2ccccc2c2n1CC(CN1CCN(C(c3ccccc3)c3ccccc3)CC1)N2` (centres unmarked) was tested, and the “hERG current change (%, negative = inhibition) at 1uM” value was -9.49%.
In the case of `N#CC(c1ccccc1)c1ccc2c(C(F)(F)F)cc(C(F)(F)F)nc2n1` (centres unmarked), the “hERG current change (%, negative = inhibition) at 1uM” value is reported as 12.7%.
With `Cc1ccc(OCC(=O)Nc2ccc3c(c2)C(=O)NC3=O)cc1` the “hERG current change (%, negative = inhibition) at 1uM” value was 7.91%.
For `CC(C)Cc1nc(Cl)c(C#N)c2c1CCC2`, the “hERG current change (%, negative = inhibition) at 1uM” value was 7.58%.
With `CCOc1cc(/C=N/Nc2ccc(C(=O)O)cc2)ccc1OC(=O)c1ccccc1C` the “hERG current change (%, negative = inhibition) at 1uM” value was 6.66%.
For `O=C(NC1CC2CCCC(C1)N2C(=O)Nc1ccc(Cl)c(C(F)(F)F)c1)C1CC1` (centres unmarked), the “hERG current change (%, negative = inhibition) at 1uM” value was 13%.
In the case of `CNCC(=O)c1ccccc1.Cl`, the “hERG current change (%, negative = inhibition) at 1uM” value is reported as 0.119%.
With `COCCn1c(SCc2ccc(C)cc2)nc2c1c(=O)[nH]c(=O)n2C` the “hERG current change (%, negative = inhibition) at 1uM” value was 10.2%.
`CCc1ccccc1NC(=O)c1cc(-c2cccc(O)c2)on1` was tested, and the “hERG current change (%, negative = inhibition) at 1uM” value was 10.1%.
In the case of `O=C1c2ccccc2C(Nc2ccc(F)cc2F)N1CCN1CCOCC1` (centres unmarked), the “hERG current change (%, negative = inhibition) at 1uM” value is reported as 12.1%.
In the case of `CCN1C(=O)[C@H]2[C@@H](c3ccc(C)cc3)N3C(=O)N(c4cccc(F)c4)C(=O)[C@@]3(C)[C@H]2C1=O`, the “hERG current change (%, negative = inhibition) at 1uM” value is reported as 14.2%.
With `Cc1cccc2sc(N(CCCN(C)C)C(=O)c3ccc(S(=O)(=O)N4CCc5ccccc5C4)cc3)nc12.Cl` the “hERG current change (%, negative = inhibition) at 1uM” value was 6.29%.
For `CCC(Oc1cc(Cl)ccc1Cl)C(=O)N1CCC2(CC1)OCCO2` (centres unmarked), the “hERG current change (%, negative = inhibition) at 1uM” value was 10.1%.
`Cc1ccc(N=Cc2sccc2C)cc1C` was tested, and the “hERG current change (%, negative = inhibition) at 1uM” value was 16.7%.
In the case of `Cc1csc(NC(=O)c2ccc(N3CCCC3=O)cc2)n1`, the “hERG current change (%, negative = inhibition) at 1uM” value is reported as 16.7%.
With `Cc1c(O)c2cccnc2[nH]c1=O` the “hERG current change (%, negative = inhibition) at 1uM” value was 19.4%.
`Cc1cccc(CN2CCC(C(N)=O)CC2)c1` was tested, and the “hERG current change (%, negative = inhibition) at 1uM” value was 17.4%.
In the case of `O=[N+]([O-])c1cccnc1Oc1ccc(F)cc1`, the “hERG current change (%, negative = inhibition) at 1uM” value is reported as 10.8%.
With `O=C(Nc1ccc(S(=O)(=O)N2CCCC2)cc1)c1cccnc1Cl` the “hERG current change (%, negative = inhibition) at 1uM” value was 0.883%.
With `CCCCCOC(=O)C1=C(C)Nc2ncnn2C1c1cccs1` (centres unmarked) the “hERG current change (%, negative = inhibition) at 1uM” value was 5.88%.
For `COc1ccc(NC(=S)Nc2ccc(C)c(S(=O)(=O)N3CCCCC3)c2)cc1`, the “hERG current change (%, negative = inhibition) at 1uM” value was 10.6%.
With `O=C(NC1CC1)c1ccc(-c2nc3ccccc3s2)s1` the “hERG current change (%, negative = inhibition) at 1uM” value was 10.4%.
In the case of `COc1ccc(CN2CCN(S(=O)(=O)c3ccc(C)cc3)CC2)cc1OC`, the “hERG current change (%, negative = inhibition) at 1uM” value is reported as 10.2%.
In the case of `Cc1cc(Cl)c(S(=O)(=O)N2CCN(c3ccc(F)cc3)CC2)cc1OCC(N)=O`, the “hERG current change (%, negative = inhibition) at 1uM” value is reported as 10%.
In the case of `Cc1ccc2cc3cc(C(=O)N4CCCCCC4)oc3nc2c1`, the “hERG current change (%, negative = inhibition) at 1uM” value is reported as 10.4%.
For `CCCC(=O)N1CCN(c2ccc(NC(=O)c3cc4ccccc4o3)cc2)CC1`, the “hERG current change (%, negative = inhibition) at 1uM” value was 1.14%.
With `CSc1ccc(CN(C)C(=O)CCNS(=O)(=O)c2ccc(C)c(C)c2)cc1` the “hERG current change (%, negative = inhibition) at 1uM” value was 3.74%.
In the case of `O=C(O)c1ccc(NS(=O)(=O)c2ccc3c(c2)OCCCO3)cc1`, the “hERG current change (%, negative = inhibition) at 1uM” value is reported as 3.86%.
In the case of `Cc1nn(CC(=O)NCCCN2CCCC2)c(=O)c2nn(-c3ccccc3)c(C)c12`, the “hERG current change (%, negative = inhibition) at 1uM” value is reported as 17.1%.
With `C[C@@H]1C[C@H]2OC(=O)C3(CO3)[C@H]2[C@H](O)[C@]2(C)C(=O)C3OC3[C@@H]12` (some centres unmarked) the “hERG current change (%, negative = inhibition) at 1uM” value was 17%.
With `Cc1ccc(C(=O)CC(=O)c2ccccc2C)c(O)c1` the “hERG current change (%, negative = inhibition) at 1uM” value was 4.65%.
With `O=C(NC1CCN(Cc2ccccc2)C1)c1cc(S(=O)(=O)N2CCOCC2)ccc1Cl` (centres unmarked) the “hERG current change (%, negative = inhibition) at 1uM” value was -11.9%.
`O=C(Nc1cccc(Cl)c1Cl)c1ccncc1` was tested, and the “hERG current change (%, negative = inhibition) at 1uM” value was 14.2%.
`N#CC(C#N)=C1c2cc(S(=O)(=O)NCCO)ccc2-c2ccc(S(=O)(=O)NCCO)cc21` was tested, and the “hERG current change (%, negative = inhibition) at 1uM” value was 5.38%.
`CC(=O)c1cc(-c2ccccc2)n(CCC(=O)NC2CCCC2)c1C` was tested, and the “hERG current change (%, negative = inhibition) at 1uM” value was 12.7%.
In the case of `Cn1c(SCC(=O)O)nc2ccccc2c1=O`, the “hERG current change (%, negative = inhibition) at 1uM” value is reported as 9.72%.
`C[C@H](NC(=O)[C@H](Cc1ccccc1)NC(=O)c1cc2cc(Cl)ccc2n1C)C(=O)O` was tested, and the “hERG current change (%, negative = inhibition) at 1uM” value was 17.4%.
In the case of `COc1ccc(N(CC(=O)N2CCc3ccccc3C2)S(C)(=O)=O)cc1`, the “hERG current change (%, negative = inhibition) at 1uM” value is reported as -9.71%.
For `Cc1ccc(S(=O)(=O)/N=C(/c2ccccc2)N(C)c2ccc(O)cc2)cc1`, the “hERG current change (%, negative = inhibition) at 1uM” value was 2%.
With `Cc1nc(SCc2c(F)cccc2Cl)c2c(=O)n(C)c(=O)n(C)c2n1` the “hERG current change (%, negative = inhibition) at 1uM” value was 13.2%.
In the case of `Cc1ccccc1N(C(=O)c1csnn1)C(C(=O)NC(C)(C)C)c1ccncc1` (centres unmarked), the “hERG current change (%, negative = inhibition) at 1uM” value is reported as 10.8%.
In the case of `O=C(Nc1cc(Cl)c(Cl)cc1Cl)c1cccnc1`, the “hERG current change (%, negative = inhibition) at 1uM” value is reported as 15.8%.
For `CC(=O)NC(c1ccco1)c1cc(F)c2cccnc2c1O` (centres unmarked), the “hERG current change (%, negative = inhibition) at 1uM” value was 0.492%.
With `Cl.Fc1ccc(CNCc2ccc3c(c2)OCO3)cc1` the “hERG current change (%, negative = inhibition) at 1uM” value was 15%.
With `O=C(CSc1nnc(C2CC2)n1-c1ccccc1)Nc1ccc(N2CCOCC2)cc1` the “hERG current change (%, negative = inhibition) at 1uM” value was 11.1%.
With `COc1ccc(N2CCN(c3nc4ccccn4c(=O)c3/C=C(\C#N)S(=O)(=O)c3ccccc3)CC2)cc1` the “hERG current change (%, negative = inhibition) at 1uM” value was 7.19%.
With `Cc1occc1C(=O)N/N=C/C(Br)=C/c1ccccc1` the “hERG current change (%, negative = inhibition) at 1uM” value was 3.88%.
`CNC(=O)OCc1cccc(COC(=O)NC)n1.Cl` was tested, and the “hERG current change (%, negative = inhibition) at 1uM” value was 17.5%.
